Data from PubChem BioAssay AID624296 (National Center for Advancing Translational Sciences (NCATS), 2012).
The whole screen tested about 350,000 compounds, of which about 9,900 (2.8%) were called active. This list was built around the results that the source calls inconclusive (neither active nor inactive); the mix of calls is not that of the screen. Calls follow the shape of the dose curve; as a rule, active = well fitted activation curve with a large enough effect; inconclusive = small, poorly fitted or top-dose-only effect; inactive = no such curve, though single readings can be large or run the other way. Potencies of inconclusive entries are left out as doubtful fits.

assay: A quantitative high throughput screen for small molecules that induce DNA re-replication in MCF 10a normal breast cells.; also: nearly all actives have a fitted effect of over 50% in size; details: MCF 10A DNA re-replication, Hoechst nuclear intensity, 48 h; series mostly up to 46.1 µM
Potency is read from the fitted curve at half-maximal effect; tags tell the direction and shape of the fitted curve.

| Compound | Potency |
| --- | --- |
| CC(/C=N/NC(=O)c1c(Br)cnn1C)=C\c1ccccc1 | inactive |
| COc1cccc(/C=N/NC(=O)c2nnn(-c3nonc3N)c2CN(C)c2ccccc2)c1 | inconclusive [activator, partial curve, poor fit] |
| COc1ccc(CS(=O)(=O)CC(C)(O)c2ccc(Cl)cc2)cc1 (configuration not stated) | inactive |
| Cc1ccc(SCCC(=O)NCc2ccncc2)cc1 | inactive |
| CCOc1ccc(CNC(=O)Cn2ccc3cc(S(=O)(=O)N4CCCC4)ccc32)cc1 | inactive |
| CCOC(=O)c1c(C)nc2c(c(SC)nn2-c2ccccc2)c1N | inconclusive [activator, partial curve, poor fit] |
| Cc1cc(N2CCN(c3ccccc3F)CC2)nc2cc(O)ccc12 | inconclusive [activator, single point] |
| Nc1nc(C23CC4CCC(CC(C4)C2)C3)cs1 | inconclusive [activator, partial curve] |
| CN(Cc1ccccc1)C(=O)c1ccc(NC(=O)C2=CSCCO2)cc1 | inactive |
| O=C(CSc1cccc2cccc(Cl)c12)NC1=NCCS1 | inactive |
| COc1ccc(Cl)cc1S(=O)(=O)N1CCC(C(=O)NCc2ccco2)CC1 | inactive |
| CCn1c(CSc2nc3ccccc3s2)n[nH]c1=S | inactive |
| COC(=O)C1Cc2ccccc2CN1C(=O)CCl (configuration not stated) | inconclusive [activator, single point] |
| COC(=O)c1c(NC(=O)C(=O)NCCCN2CCOCC2)sc2c1CCCC2 | inconclusive [activator, single point] |
| COCCNC(=O)c1ccc2c(c1)ncn2-c1ccc(C)c(Cl)c1 | inconclusive [activator, single point] |
| Cc1ccc(NC(=O)CN(C)S(=O)(=O)c2ccc3c(c2)n(C)c(=O)c(=O)n3C)cc1 | inconclusive [activator, partial curve, poor fit] |
| O=C(CSc1nc2cc3ccccc3cc2[nH]1)Nc1ccc(F)cc1 | inactive |
| O=C(CSc1ncccn1)NCc1ccccc1Cl | inactive |
| Cc1ccc2c(C)c(C(=O)N(C)C(C)c3ccncn3)oc2c1C (configuration not stated) | inactive |
| CCOC(=O)c1c(NC(=O)c2noc(C)c2[N+](=O)[O-])sc(C(C)=O)c1C | inconclusive [activator, single point] |
| COCCNC(=S)N(CCc1c(C)[nH]c2ccc(F)cc12)Cc1cccs1 | inactive |
| C=CCn1c(SCC(=O)N(CC)C2CCS(=O)(=O)C2)nc2scc(-c3ccccc3)c2c1=O (configuration not stated) | inconclusive [activator, partial curve, poor fit] |
| CCc1ccc(-c2cc(C)no2)cc1S(=O)(=O)N1CCN(C(=O)c2ccco2)CC1 | inactive |
| COc1ccc(OCc2cc(C(=O)NC3Cc4ccccc4C3)no2)c(Cl)c1 | inconclusive [activator, full curve] |

| Compound | Potency |
| --- | --- |
| O=C(Cc1ccc(Cl)cc1)Nc1ccccc1N1CCN(C(=O)c2ccccc2)CC1 | active: 18.4 µM |
| CC(Cc1cccs1)NC(=S)Nc1ccc(Cl)c(Cl)c1 (configuration not stated) | inconclusive [activator, single point] |
| CC1C(c2ccccc2)N(C)C(c2ccccc2)C(C)C1(O)C#Cc1ccccc1 (configuration not stated) | active: 23.1 µM |
| CCOC(=O)c1cn(-c2c(C)n(C)n(-c3ccccc3)c2=O)c2c(F)c(F)c(F)cc2c1=O | inconclusive [activator, partial curve, poor fit] |
| COc1ccc(OC)c(-c2csc(-c3cccs3)n2)c1 | inconclusive [activator, single point] |
| Cc1cc(C)nc(SCC(=O)Nc2nonc2N)n1 | inconclusive [activator, single point] |
| O=C(COC(=O)c1ccc([N+](=O)[O-])o1)NC1CCCc2ccccc21 (configuration not stated) | inconclusive [activator, single point] |
| CC1(C)COC2(OC1)C(=O)Nc1ccccc12 | inconclusive [activator, single point] |
| Cc1ccc2cc(CCNC(=O)c3ccc(Br)o3)c(=O)[nH]c2c1 | inactive |
| COc1ccc(C(CCN2CCCCC2)c2c(OC)cc(OC)c3c(-c4ccccc4)cc(=O)oc23)cc1 (configuration not stated) | inconclusive [activator, single point] |
| O=C(N[C@@H](Cc1ccccc1)C(=O)N1CCC2(CC1)NCCc1[nH]cnc12)c1cccc(F)c1 | inactive |
| Cc1ccc(-c2nn(-c3ccccc3)cc2/C=C/C(=O)Nc2nccs2)cc1 | inconclusive [activator, single point] |
| Cc1cc(-c2n[nH]c(=S)n2/N=C/c2cc([N+](=O)[O-])ccc2Cl)n[nH]1 | inconclusive [activator, single point] |
| OCC[C@H]1C[C@H](O)[C@@H](O)[C@@]2(OCCCc3ccccc32)O1 | inactive |
| Cc1ccc2[nH]c(=O)c3cc(C(=O)N(C)c4ccc(C)c(C)c4)sc3c2c1 | active: 4.11 µM |
| CCCNc1c(NC(C)=O)c(=O)oc2ccccc12 | inconclusive [activator, single point] |
| CCc1ccc(CN(C)C(=O)c2cc(COc3cccc4cnccc34)on2)cc1 | active: 20.6 µM |
| CC1CCN(c2nc(-c3ccncc3)nc3ccccc23)CC1 | inconclusive [activator, single point] |
| Cc1cc(C)cc(NC(=O)CN2CCCN(S(=O)(=O)c3ccc(Br)s3)CC2)c1 | inactive |
| CCOC(=O)C(=CNc1cc(Cl)c(-c2ccco2)c(Cl)c1)C(=O)OCC | active: 16.4 µM |
| CCOc1cc(C(=O)NC(C)C2CC3CCC2C3)cc(OCC)c1OCC (configuration not stated) | active: 13 µM |
| CCCn1nnc(NC(=O)c2cccc(OCC(C)C)c2)n1 | inconclusive [activator, single point] |
| CCN(CC(=O)Nc1ccc(NC(C)=O)cc1)C(=O)c1oc2c(ccc3ccccc32)c1C | inconclusive [activator, single point] |
| CCSc1nc2nc(C)cc(C)n2n1 | inconclusive [activator, partial curve, poor fit] |

| Compound | Potency |
| --- | --- |
| Cc1ccccc1Nc1c(N)c(=O)oc2ccccc12 | inconclusive [activator, full curve, poor fit] |
| CCCCN(C(=O)c1ccc2c(c1)OCO2)c1ccccc1 | inactive |
| CN1CCc2c(sc(NC(=O)c3ccc([N+](=O)[O-])o3)c2C(N)=O)C1 | inconclusive [activator, partial curve, poor fit] |
| COc1ccc2c(c1)c(C(=O)CN1CCC(C(N)=O)CC1)c(C)n2C | inconclusive [activator, single point] |
| O=C(CSc1nnc(-c2ccc(F)cc2)c2ccccc12)Nc1ccccc1Cl | inconclusive [activator, partial curve, poor fit] |
| Cc1nc(NCCc2ccc(S(N)(=O)=O)cc2)c2c3c(sc2n1)CCC3 | inconclusive [activator, partial curve] |
| CCn1c(=O)c(C(=O)NNC(=O)c2cccc(Cl)c2)c(O)c2ccccc21 | active: 23.1 µM |
| COc1cc(Cl)ccc1OCc1cc(C(=O)N2CCN(c3ccccn3)CC2)no1 | inconclusive [activator, single point] |
| O=C(NC1CCCC1)c1ccc(Br)c(S(=O)(=O)N2CCCCC2)c1 | inactive |
| N#C/C(=C\c1ccc(O)c(O)c1)C(=O)N1CCc2ccccc21 | inactive |
| CCOC(=O)C1=C(C)N(C[C@@H]2CC[C@@H](Cc3ccc(-c4ccccc4)cc3)O2)C(=O)NC1c1ccc(C(F)(F)F)cc1 (some centres not stated) | inactive |
| Cc1cccc2sc(NNC(=O)c3cc(-c4cccs4)nc4ccccc34)nc12 | active: 18.4 µM |
| Cc1cc(OC(C)C(=O)N/N=C/CC(C)c2ccccc2)ccc1Cl (configuration not stated) | inconclusive [activator, partial curve, poor fit] |
| COc1ccc(S(=O)(=O)Nc2ccc3c(c2)OCCO3)cc1Cl | inconclusive [activator, partial curve, poor fit] |
| CCCc1cc(-c2n[nH]c(=S)n2CC)c2ccccc2n1 | inconclusive [activator, full curve, poor fit] |
| CCOC(=O)c1c(C)[nH]c(C(=O)CSc2nnnn2-c2ccc(C)cc2)c1C | inconclusive [activator, partial curve, poor fit] |
| CCCC/C=C1\CCc2c([nH]c3ccccc23)C1=O | inconclusive [activator, single point] |
| O=C(CCCCCn1nnc2ccccc2c1=O)N[C@H](C(=O)O)c1ccccc1 | inconclusive [activator, partial curve, poor fit] |
| O=C1N=C(N2CCOCC2)S/C1=C\c1cccs1 | inactive |
| CCc1ccc2c(CN3CCN(S(=O)(=O)c4ccccc4F)CC3)cc(=O)oc2c1 | inactive |
| O=C(Nc1nnc(C2=COCCO2)o1)c1cccc(Br)c1 | inconclusive [activator, single point] |
| O=C(Oc1c(Cl)cc(Cl)c2cccnc12)c1ccco1 | active: 20.6 µM |
| O=C(CN(c1ccccc1F)S(=O)(=O)c1ccccc1)Nc1ccccc1C(=O)N1CCOCC1 | inconclusive [activator, partial curve, poor fit] |
| Cc1ccc(C)c(SCC(=O)N(C)C2CCS(=O)(=O)C2)c1 (configuration not stated) | inconclusive [activator, single point] |
